# Among all 110,000 compounds or so, about 230 (0.21%) showed an effect of 50% or more. Some of the results follow.
# Target: DPAP1 (Plasmodium falciparum, UniProt Q8IIJ9)
# Experiment: primary screen, percent inhibition; read by cleavage of a fluorogenic dipeptide substrate; higher = more effect of the substance
# Design: species or system P. falciparum D10 trophozoite lysates; single well
# 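Also: 30 min substrate incubation versus DMSO and 10 µM JCP410 controls.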
# Chain of DPAP1 (Q8IIJ9 whole entry, looked up): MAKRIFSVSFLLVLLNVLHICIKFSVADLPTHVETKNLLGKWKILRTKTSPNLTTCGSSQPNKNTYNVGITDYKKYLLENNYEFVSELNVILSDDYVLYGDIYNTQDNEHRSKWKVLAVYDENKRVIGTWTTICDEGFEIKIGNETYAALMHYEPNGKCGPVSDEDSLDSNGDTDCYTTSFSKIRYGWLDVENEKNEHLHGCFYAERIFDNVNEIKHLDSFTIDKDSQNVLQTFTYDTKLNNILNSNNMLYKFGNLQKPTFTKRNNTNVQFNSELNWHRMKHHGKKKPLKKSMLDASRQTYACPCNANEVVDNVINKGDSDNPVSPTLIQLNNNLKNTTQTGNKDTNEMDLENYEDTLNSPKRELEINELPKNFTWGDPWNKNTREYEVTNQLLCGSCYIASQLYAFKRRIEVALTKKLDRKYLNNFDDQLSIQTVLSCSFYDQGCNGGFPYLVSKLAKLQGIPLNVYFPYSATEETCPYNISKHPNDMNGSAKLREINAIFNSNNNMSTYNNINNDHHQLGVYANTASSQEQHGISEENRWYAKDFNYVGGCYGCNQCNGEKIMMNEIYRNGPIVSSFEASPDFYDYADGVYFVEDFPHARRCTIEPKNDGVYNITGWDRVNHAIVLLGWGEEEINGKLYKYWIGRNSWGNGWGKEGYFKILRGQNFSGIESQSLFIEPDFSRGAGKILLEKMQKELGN
row,Structure (SMILES),% Inhibition @ 10 uM [%]
1,CC1=CC2=NC(=O)/C(=C\c3ccc(OCCCOc4ccc(C)cc4)cc3)C(=N)N2O1,-1.43
2,O=S(=O)(Nc1ccc2c(c1)OCO2)c1ccc(Cl)cc1,4.16
3,COc1ccc(C=O)cc1Cn1cnc2c(cnn2C)c1=O,-2.41
4,O=C(CC(NCc1ccccc1)C(=O)O)NC1CCCCC1 (centres unmarked),0.426
5,CCOC(=O)c1c(S(=O)(=O)NCCC2=CCCCC2)c(C)n(C)c1C,2.6
6,COc1cc(NC(=O)c2cc(Br)ccc2OC)c(C(=O)O)cc1OC,-1.6
7,Cc1ccc(-n2c(C)cc(C(=O)C(=O)Nc3nnc(-c4cccnc4)s3)c2C)cc1,3.92
8,COc1ccc(OC)c(Nc2nc(-c3c(C)nc4ccccn34)cs2)c1,-4.82
9,CCN(Cc1ccccc1)Cc1ccco1,-1.78
10,CCc1nnc(NS(=O)(=O)c2ccc(NC(=O)c3ccc(OC)cc3)cc2)s1,-3.93
11,COc1cc2c(cc1OC)C1C(C(=O)NCC3CCCO3)c3ccccc3C(=O)N1CC2 (centres unmarked),0.559
12,Cc1ccc(-c2c3c(nc4sc(C(=O)c5ccc(Cl)cc5)c(N)c24)CCCC3)o1,-1.05
13,CC1(C)CC2CC(C)(CN2c2nc(-c3ccco3)cc(C(F)(F)F)n2)C1 (centres unmarked),-3.79
14,O=C(c1cc2c(Cl)ccc3c2n1CCO3)N1CCC2(CC1)OCCO2,0.967
15,CCOc1ccc(C(=O)NC(C)c2ccccc2)cc1 (centres unmarked),2.36
16,CCc1nnc(NC(=O)COc2cc(C)c(Cl)c(C)c2)s1,10.6
17,CN(C)c1ccc(NC(=O)C23CC4CC(C2)CC(n2cnc(Cl)n2)(C4)C3)cc1,-0.305
18,COC(=O)c1cc(S(=O)(=O)NCC2CCN(CCc3cccc(OC)c3)CC2)c[nH]1,3.27
19,CC(C)CC(C(=O)NCCc1c[nH]c2ccccc12)N1Cc2ccccc2C1=O (centres unmarked),0.297
20,COc1cccc(N/C(=N/C(=O)c2ccccc2)Nc2nc(C)cc(C)n2)c1,2.98
21,CN(C)CCN(C)C1CCc2ccccc2C1 (centres unmarked),-0.0953
22,Cn1c(=O)[nH]c(=O)c2c1nc(CN1CCOCC1)n2CCc1ccccc1,-2.92

row,Structure (SMILES),% Inhibition @ 10 uM [%]
1,COc1ccc2[nH]cc(CCN3C(=O)c4ccccc4C3=O)c2c1,1.54
2,COCCNC(=O)CN(c1cccc(Br)c1)S(=O)(=O)c1ccccc1,0.635
3,COc1ccc(C(=O)C2=C(O)C(=O)N(Cc3ccco3)C2c2cccnc2)cc1 (centres unmarked),-8.53
4,CCc1nnc(NS(=O)(=O)c2ccc(NC(=S)NC(=O)/C=C/c3ccccc3)cc2)s1,-3.16
5,CCn1cc(CCC(=O)NCc2ccccc2Cl)c2ccccc21,-7.02
6,CCCC1NCCn2cccc21 (centres unmarked),0.716
7,O=[N+]([O-])c1ccccc1C1=Nc2ccccc2C(c2ccccc2)(c2ccccc2)O1,2.94
8,Cc1ccc2[nH]c(Cc3nn[nH]n3)nc2c1,3.01
9,O=C1NC(c2ccncc2)Nc2sc3c(c21)CCCC3 (centres unmarked),8.82
10,CCO/C(O)=C1/C(C)=Nc2ncnn2C1c1ccncc1 (centres unmarked),1.63
11,O=C(CC1CCCC1)Nc1noc2ccccc12,5.29
12,CN1CCN(C(=O)c2cc3nc(-c4ccccc4)cc(C(F)(F)F)n3n2)CC1,-1.66
13,N#Cc1c(C(F)(F)F)cc(-c2cccs2)nc1SCC(=O)O,9.42
14,CCOc1ccc(C2CC(=O)N3C(=C2C#N)SCC3(O)c2ccco2)cc1OC (centres unmarked),1.64
15,CCN(CC)CCn1c2ccccc2c2nc3ccccc3nc21,0.606
16,CCc1ccc(NS(=O)(=O)c2ccc(Cl)cc2)cc1,0.247
17,O=C(NCC(O)c1ccccc1)c1ccc(Cl)cc1 (centres unmarked),-3.88
18,Cc1cc(C)c(C)c(S(=O)(=O)NCCCN2CCOCC2)c1C,1.28
19,CCOC(=O)c1ccc(S(=O)(=O)N2CCC(N3CCCCC3)CC2)cc1,-0.671
20,c1ccc(CCCN2CCC(N3CCCCC3)CC2)cc1,0.273
21,O=S(=O)(c1ccccc1)c1nnn2c1nc(N1CCOCC1)c1ccccc12,-3.08
22,CC(=O)Nc1ccc(Cl)c(-c2nc3ncccc3o2)c1,2.05

row,Structure (SMILES),% Inhibition @ 10 uM [%]
1,O=S(=O)(NCCCc1ccccc1)c1cccc2nsnc12,3.05
2,Cc1nnc(NC(=O)CSc2nc(O)c3cnn(-c4ccccc4)c3n2)s1,0.208
3,O=C(C1CCN(S(=O)(=O)c2cccc3nsnc23)CC1)N1CCOCC1,1.9
4,CCn1c(Sc2ncnc3ccccc23)nc2ccccc21,-4.91
5,Cc1occc1-c1nnc(O)o1,-6.56
6,Cc1ccc(-n2cnnn2)cc1Cl,1.67
7,CCn1c(C)c(C2N3CC4(C(C)C)CN2CC(C(C)C)(C3)C4=O)c2ccccc21 (centres unmarked),2.05
8,O=C(Cn1cnc2c(nnn2Cc2ccccc2F)c1=O)N1CCOCC1,4.41
9,CCN1CN(Cc2ccco2)CNC1=S,1.52
10,COC(=O)C1=C(C)NC(=O)NC1c1c(O)ccc2ccccc12 (centres unmarked),-2.66
11,C=CC(=O)N1C(C)CCCC1C(=O)O (centres unmarked),-1.47
12,CC(C)(C)C(=O)Nc1ccccc1C(O)c1ccccc1 (centres unmarked),-2.19
13,CC(=O)N1CCc2nc3sc(C(=O)Nc4cccc(C#N)c4)c(N)c3c(C(F)(F)F)c2C1,0.235
14,O=C(NCC1CCCO1)C1c2ccccc2C(=O)N(C2CCCC2)C1c1cccs1 (centres unmarked),-4.99
15,O=C(O)CCCCCn1c(SCC(=O)NCC2CCCO2)nc2ccsc2c1=O (centres unmarked),-0.975
16,O=C(CCNS(=O)(=O)c1cccc2nsnc12)N(CCc1ccccc1)Cc1ccccc1,-7.43
17,COc1ccc(C2N=C(N)N=C(N)N2c2ccc(C)cc2)cc1 (centres unmarked),0.177
18,CC(=O)Nc1ccc(C2=CSC3=NCCN23)cc1,3
19,CCC(=O)N1N=C(c2ccccc2)CC1c1ccc(F)cc1 (centres unmarked),-0.641
20,CC1CCCCN1CCNC(=O)c1cnn(-c2ccccc2)c1-n1cccc1 (centres unmarked),1.8
21,COc1cc(C=C2C(=O)N(C)C(=O)N(C)C2=O)ccc1OS(=O)(=O)c1ccccc1,-1.93
